Reference: PMC7819943, “Rice protein-binding microarrays: a tool to detect cis-acting elements near promoter regions in rice”
The list shows a part of the results.

Each sequence was assayed against T1, OsWOX13 (Oryza sativa, UniProt Q5QMM3 1-267) (assay: protein-binding microarray (RPBM); PBS, 2% BSA, 51.3 ng/ul salmon testes DNA, 50 uM zinc acetate, 200 nM TF, 25 C, 1 h; high values mean tight binding). Settings: protein: recombinant; tags: N-terminal polyhistidine and DsRed monomer fusion (pET32a); label: CyDye5-dUTP incorporated in the synthesized complementary strand; 3' TTTTT single-stranded linker to array surface; dsDNA, one strand shown.
T1 sequence: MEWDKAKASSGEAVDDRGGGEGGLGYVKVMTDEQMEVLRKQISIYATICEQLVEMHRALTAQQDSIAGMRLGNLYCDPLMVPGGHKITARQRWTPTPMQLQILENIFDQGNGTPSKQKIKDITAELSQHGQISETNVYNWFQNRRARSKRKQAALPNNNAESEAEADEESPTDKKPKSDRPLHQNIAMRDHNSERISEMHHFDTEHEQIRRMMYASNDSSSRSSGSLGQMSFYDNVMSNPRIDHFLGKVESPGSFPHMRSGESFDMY
In short: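 Transcription factors were each fused at the N-terminus to a polyhistidine tag plus DsRed and expressed in E. coli BL21-CodonPlus before Ni–NTA purification. Binding to a double-stranded custom Agilent array was carried out with 200 nM protein at 25 °C for 1 h in PBS, 2% BSA, salmon testes DNA and 50 µM zinc acetate. The binding signal is per-feature fluorescence intensity, in arbitrary units, on an Axon 4000B scanner.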

Sequence | binding signal
ATAATGTGTAACTTGATTGCTGAGGTAGTATTAATCTTTGCGGAGTCACCTAGTGCAG | 24300 fluorescence intensity (a.u.)
AATTCATTGTAATTAAATCTTCAAAACAAGACCACACATGCGGAGTCACCTAGTGCAG | 3400 fluorescence intensity (a.u.)
CACATACTATACTACATTAATTATATTCTGATGAAATCCGCGGAGTCACCTAGTGCAG | 4130 fluorescence intensity (a.u.)
TTATATTTAGATTGAAGCCAAAATAACCTAAGTTCACTATCGGAGTCACCTAGTGCAG | 8620 fluorescence intensity (a.u.)
TAGTGATAGACGGCATAACCATAGACAACGAGGTGCTCGTCGGAGTCACCTAGTGCAG | 14600 fluorescence intensity (a.u.)
ACCACCACAAATTAAACCGTATTTTATTACCATCACACGCCGGAGTCACCTAGTGCAG | 3240 fluorescence intensity (a.u.)
CATAAACAGATGCTAATTCTTGGTGGTCGGGGTGGGTCTCCGGAGTCACCTAGTGCAG | 19500 fluorescence intensity (a.u.)
CAATCATTCAATCATCGCCGCCTTATCTTTCCCAATTCGACGGAGTCACCTAGTGCAG | 13400 fluorescence intensity (a.u.)
TCCAATTTGTATGTTATTAATCAGAGAAGAACGAGACGGACGGAGTCACCTAGTGCAG | 3800 fluorescence intensity (a.u.)
GGAAGTGATTGCTGTGCTGCACAGTCTAGCACCGCAGCATCGGAGTCACCTAGTGCAG | 20200 fluorescence intensity (a.u.)
ACACCAAATGTCTAAATTTAAATTTAAAGTGAGAGTTGGTCGGAGTCACCTAGTGCAG | 8050 fluorescence intensity (a.u.)
ATGCGGCCAATCAGATTGAGCGGCGTGCATCATGAGTGTCCGGAGTCACCTAGTGCAG | 6880 fluorescence intensity (a.u.)
GAAAGACAGATTGCATGTTTGCACTGTGTTTGTTCCCTGACGGAGTCACCTAGTGCAG | 5950 fluorescence intensity (a.u.)
ACTAGCTAAATTATACCATGTTAACTTATACTATATTAGTCGGAGTCACCTAGTGCAG | 9700 fluorescence intensity (a.u.)
GGAGATTGGAGATTGTAGAAGAAGAAGCAGCTACAAACCTCGGAGTCACCTAGTGCAG | 20000 fluorescence intensity (a.u.)
CATTTGTCAGTCAAAATTATGCCACGTCGTGTCCGTGTGACGGAGTCACCTAGTGCAG | 3780 fluorescence intensity (a.u.)
ATCTTGTTAATTTTGGCCTCAAATAGGTCTAGAATTCATCCGGAGTCACCTAGTGCAG | 4030 fluorescence intensity (a.u.)
AGCTTAATTTGCTAGCCATTATAGCCTCTCATCGATATATCGGAGTCACCTAGTGCAG | 25200 fluorescence intensity (a.u.)
TGCTGCCAATTATTTTCAAAACAGGAGAGATTGTTGCCTCCGGAGTCACCTAGTGCAG | 5630 fluorescence intensity (a.u.)
GCCATATATAGATTGCTCTTTCATTTCCCGATCGGTTGATCGGAGTCACCTAGTGCAG | 6660 fluorescence intensity (a.u.)
CATTGATAGACAGATAGGTGAGGTTGGTGCACTGTCCCCACGGAGTCACCTAGTGCAG | 51000 fluorescence intensity (a.u.)

Sequence | binding signal
TGTGATTGGGCCAAAGCCCAATACCCCAACACACGACGACCGGAGTCACCTAGTGCAG | 23200 fluorescence intensity (a.u.)
ATTAAATCAGATTACTCTAAACTGGATTATAATAAGCTGGCGGAGTCACCTAGTGCAG | 10300 fluorescence intensity (a.u.)
ATCTTAATTTAATTTATACTGGTTTCCAAGTTGTAATTAACGGAGTCACCTAGTGCAG | 21400 fluorescence intensity (a.u.)
TATAATTGTGCCCTACCATATCGGCTTACTCGTCAGGCAACGGAGTCACCTAGTGCAG | 12400 fluorescence intensity (a.u.)
TTTTGGTGTGATTATGTATATATATATCTGGGTGATTGGTCGGAGTCACCTAGTGCAG | 9400 fluorescence intensity (a.u.)
TCTGAGCAATTAGTAAGTGAATGTCGCTACTGCATTGGCGCGGAGTCACCTAGTGCAG | 4330 fluorescence intensity (a.u.)
TGTGGGTCTTATCTTAATATTAATTACTATCTATATACATCGGAGTCACCTAGTGCAG | 3310 fluorescence intensity (a.u.)
ATTGGATTGGATTATTAATGAGACGGTGAGATTTCAAGTGCGGAGTCACCTAGTGCAG | 19700 fluorescence intensity (a.u.)
CATTATTAATTTTACGACTGACGCGAAGTGCTAACGAGCTCGGAGTCACCTAGTGCAG | 3200 fluorescence intensity (a.u.)
TTAAATTTTATGTTGCTCCATCTTCCGAGTCCTTGCTACTCGGAGTCACCTAGTGCAG | 3360 fluorescence intensity (a.u.)
TAGTCTTGATTGATTGGCAGATGACAGCATAATAGCCGTACGGAGTCACCTAGTGCAG | 65200 fluorescence intensity (a.u.)
ATGATCGGGGCATCAATCCATCAACATTTATTTATAGGTACGGAGTCACCTAGTGCAG | 3720 fluorescence intensity (a.u.)
TTTGACTGCGTTCGTTTGGAGAACAAAGGGAGTTTGTTTGCGGAGTCACCTAGTGCAG | 8590 fluorescence intensity (a.u.)
TTAATTAGGCTTAATAAATTCGTCTCGCAGTTTCCTGGCGCGGAGTCACCTAGTGCAG | 11300 fluorescence intensity (a.u.)
GCCCTATTAATAACACATGTAATTAAGCCAACACTAATCCCGGAGTCACCTAGTGCAG | 7980 fluorescence intensity (a.u.)
GGCTCAAACAGTTAAACTGATAAATACGGTCAATTCACGACGGAGTCACCTAGTGCAG | 5110 fluorescence intensity (a.u.)
ATAGTTACAATATAATTGTATTTTAATTATATATAGTTTCCGGAGTCACCTAGTGCAG | 10200 fluorescence intensity (a.u.)
TTTTGACTGACTTAAGTACACTAGTATAAAGTATGCAAAACGGAGTCACCTAGTGCAG | 3300 fluorescence intensity (a.u.)
ATAATCAATCACACACACATCCCGACCGGGTCCGAATAGACGGAGTCACCTAGTGCAG | 23200 fluorescence intensity (a.u.)
ATCCTAATCACAAAATGTGAACATTTATAACTCAAATATACGGAGTCACCTAGTGCAG | 5830 fluorescence intensity (a.u.)
AACGCATGATTGACGAGTATTGTTTTACTGTAAACTTAAACGGAGTCACCTAGTGCAG | 26700 fluorescence intensity (a.u.)
